Assay results as given in PubChem BioAssay AID1460 (National Center for Advancing Translational Sciences (NCATS), 2008).
Hit rate of the full screen: of about 270,000 compounds, about 5,800 (2.1%) were called active. The shares of active, inactive and inconclusive entries below differ from those in the screen. Calls follow the shape of the dose curve; as a rule, active = well fitted inhibition curve with a large enough effect; inconclusive = small, poorly fitted or top-dose-only effect; inactive = flat fitted curve, though single readings scatter. A potency beside an inconclusive call is a rough fit, not a confirmed value.

These compounds were tested against Microtubule-associated protein tau (Homo sapiens) (UniProt P10636) (assay: qHTS for Inhibitors of Tau Fibril Formation, Thioflavin T Binding). Details: recombinant tau K18 P301L (four-repeat tau fragment), heparin-induced fibrillization, ThT fluorescence; series mostly up to 57.4 µM; activity, negative = inhibition: at the top concentration.
Chain of UniProt P10636 (P10636 whole entry, looked up, the tested form may be a part): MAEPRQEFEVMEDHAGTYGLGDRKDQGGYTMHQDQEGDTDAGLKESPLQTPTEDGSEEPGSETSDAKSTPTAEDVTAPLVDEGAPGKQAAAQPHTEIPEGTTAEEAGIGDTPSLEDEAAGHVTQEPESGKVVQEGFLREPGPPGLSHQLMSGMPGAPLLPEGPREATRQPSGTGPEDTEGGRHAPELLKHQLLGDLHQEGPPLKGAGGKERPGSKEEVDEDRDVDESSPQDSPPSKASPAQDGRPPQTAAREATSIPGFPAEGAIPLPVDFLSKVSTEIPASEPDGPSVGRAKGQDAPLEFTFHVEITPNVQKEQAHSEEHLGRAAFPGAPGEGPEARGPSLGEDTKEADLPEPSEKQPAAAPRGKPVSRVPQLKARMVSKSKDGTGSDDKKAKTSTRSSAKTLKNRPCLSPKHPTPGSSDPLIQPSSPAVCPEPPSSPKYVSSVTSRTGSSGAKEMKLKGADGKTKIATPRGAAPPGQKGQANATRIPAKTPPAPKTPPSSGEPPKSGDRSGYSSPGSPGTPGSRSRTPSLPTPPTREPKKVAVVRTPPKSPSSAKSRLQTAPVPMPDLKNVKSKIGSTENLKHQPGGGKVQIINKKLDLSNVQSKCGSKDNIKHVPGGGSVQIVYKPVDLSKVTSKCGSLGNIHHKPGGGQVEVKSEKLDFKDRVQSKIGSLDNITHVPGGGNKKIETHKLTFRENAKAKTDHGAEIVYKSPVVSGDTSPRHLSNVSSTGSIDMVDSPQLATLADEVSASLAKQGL
Outline: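 Recombinant human tau K18 fragment […] carrying P301L, 15 uM unlabeled plus 0.24 uM Alexa 594-labeled, was fibrillized with 20 uM heparin in 100 mM sodium acetate pH 7 for 6 hr at 37 C; 30 uM ThT fluorescence read after 1 hr.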
% is scaled to controls: 0 for no effect and ±100 for the full control effect; potency is read from the fitted curve at half-maximal effect; tags tell the direction and shape of the fitted curve.
Also: nearly all actives have a fitted effect of over 55% in size.

SMILES | activity, negative = inhibition | Potency
CCOc1ccc(N2C(=O)/C(=C\c3ccc(OC)c(O)c3)S(=O)(=O)C2c2cccc([N+](=O)[O-])c2)cc1 (stereo not drawn) | inactive: -1.78% | –
Clc1nc(Cl)nc(-c2cn(-c3ccccc3)c3ccccc23)n1 | inactive: -6.93% | –
Cc1ccc(OCCN2CCN(C(=O)CCC(=O)Nc3nnc(C)s3)CC2)cc1 | inactive: 1.04% | –
CCOc1ccc2nc(N3CCC(C(=O)N4CCN(c5ccccn5)CC4)CC3)sc2c1 | – | inconclusive: 14.1 µM [inhibitor, partial curve]
CC(C)N(Cc1ccccc1)C(=O)COC(=O)/C=C/c1cnc2ccccc2n1 | – | inconclusive: 25.1 µM [inhibitor, single point]
COc1cc(-c2coc3cc(OC)c(OC)c(OC)c3c2=O)cc(OC)c1OC | inactive: -4.57% | –
Cc1ccc(SC[C@H](Cc2ccccc2)N2CCN(CC(C)C)CCC2=O)cc1 | – | inconclusive: 44.7 µM [inhibitor, single point]
Cc1ccc([C@H]2Nc3ccc(S(=O)(=O)Nc4cccc(Cl)c4C)cc3[C@H]3C=CC[C@H]32)cc1 | – | active: 12.6 µM
C/C(=N\NC(N)=S)c1ccc(-n2ccnc2)cc1 | – | inconclusive: 2.82 µM [inhibitor, full curve, poor fit]
CCOc1ccc(C(CCc2ccccc2)NC(=O)c2ccc(OC)c(OC)c2)cc1OCC (stereo not drawn) | – | inconclusive: 44.7 µM [inhibitor, single point]
CC(C)CCNC(=O)NC(=O)CSc1nnc(-c2ccccc2F)n1N | – | inconclusive: 0.0708 µM [inhibitor, full curve, poor fit]
CCOc1cccc(/C(O)=C2/C(=O)C(=O)N(CCOC)C2c2ccco2)c1 (stereo not drawn) | – | inconclusive: 11.2 µM [inhibitor, partial curve]
COc1ccccc1/C=C/C(=O)NC(=S)NCC1CCCO1 (stereo not drawn) | inactive: -12.3% | –
CCOC(=O)Cc1cc(=O)[nH]c(Nc2nc3ccccc3o2)n1 | – | inconclusive: 14.1 µM [inhibitor, partial curve]
CC(Sc1ccsc1[N+](=O)[O-])C(=O)NCc1ccco1 (stereo not drawn) | – | inconclusive: 15.8 µM [inhibitor, partial curve]
O=C(c1nnsc1S(=O)(=O)c1ccc(Cl)cc1)N1CCOCC1 | – | inconclusive: 7.08 µM [inhibitor, single point]
O=C(CCc1n[nH]c(=O)[nH]c1=O)Nc1cccc([N+](=O)[O-])c1 | – | inconclusive: 39.8 µM [inhibitor, single point]
Cc1ccccc1N1CCN(S(=O)(=O)c2nnc(NC(=O)c3ccccc3)s2)CC1 | – | inconclusive: 12.6 µM [inhibitor, partial curve]
O=C(O)c1cnn(-c2ccccc2)c1C(F)(F)F | – | inconclusive: 20 µM [inhibitor, single point]
CCOc1ccc(C(=O)Nc2ccc(N3CCCC3)cc2)cc1 | – | active: 8.91 µM
CCS(=O)(=O)N1CCC(C(=O)NCCCN2CCC(Cc3ccccc3)CC2)CC1 | – | inconclusive: 14.1 µM [inhibitor, partial curve, poor fit]
CCOc1ccc(C(=O)NCCc2csc(-c3ccc(C(F)(F)F)cc3)n2)cc1OCC | inactive: -4.2% | –
CCN(CCCNC(=O)CCCn1c(=O)[nH]c2ccccc2c1=O)c1cccc(C)c1 | – | inconclusive: 22.4 µM [inhibitor, partial curve]

SMILES | activity, negative = inhibition | Potency
Cc1cc(C)cc(OCc2nnc(SCC(=O)c3ccccc3)o2)c1 | – | inconclusive: 11.2 µM [inhibitor, partial curve]
O=C(c1cc(COc2ccc3ncccc3c2)on1)N1CCC(O)CC1 | inactive: 0.31% | –
COc1ccc(NC(=O)c2ccc3c(=O)n4nc(Nc5cc(C)ccc5C)sc4nc3c2)cc1 | – | inconclusive: 2.82 µM [inhibitor, partial curve]
CCOc1ccccc1CNC(=O)C1CCN(C2=NS(=O)(=O)C(c3ccc(C)c(C)c3)=C2C)CC1 | – | inconclusive: 1.26 µM [inhibitor, full curve]
COCCNc1nc2nonc2nc1N1CCCC1c1nccs1 (stereo not drawn) | – | inconclusive: 35.5 µM [inhibitor, single point]
O=C(/C=C/c1ccc(Cl)cc1)NC(=S)Nc1ccc(N2CCOCC2)c(Cl)c1 | – | inconclusive: 2.24 µM [inhibitor, full curve]
Cc1cc(C(=O)CSc2nc3ccc(Cl)cc3[nH]2)c(C)n1C | – | inconclusive: 20 µM [inhibitor, partial curve]
Cc1cc(C)n(S(=O)(=O)/C=C/c2ccccc2)n1 | – | inconclusive: 14.1 µM [inhibitor, partial curve]
CSc1nsc(N/N=C/c2ccccc2)c1C#N | – | inconclusive: 2.51 µM [inhibitor, full curve]
COc1ccc(C(=O)CSc2nnn(-c3cccc(NC(C)=O)c3)n2)cc1 | – | inconclusive: 39.8 µM [inhibitor, single point]
CC(=O)Nc1ccc(Nc2cc(-c3ccccc3)nc3ncnn23)cc1 | inactive: -15.9% | –
CCOc1ccccc1CNC(=O)c1cc2c(=O)n(Cc3ccccc3)ccc2nc1C | inactive: -7.01% | –
Oc1ccc(Cl)c2cccnc12 | – | inconclusive: 31.6 µM [inhibitor, single point]
Clc1ccc(-c2cn3cccnc3n2)cc1Cl | – | inconclusive: 7.94 µM [inhibitor, partial curve]
CCN(CC)C(=O)CSC1c2ccccc2C(=O)N1c1ccccc1 (stereo not drawn) | – | inconclusive: 14.1 µM [inhibitor, partial curve]
CCOC(=O)N1CCN(C(=O)c2ccc3c(=O)n(Cc4ccccc4)c(=S)[nH]c3c2)CC1 | inactive: -6.97% | –
O=C(N/N=C/c1cccc([N+](=O)[O-])c1)C1CC(=O)N(c2ccc(Br)cc2)C1 (stereo not drawn) | – | inconclusive: 35.5 µM [inhibitor, single point]
CC(C)c1ccc(OC(=O)c2cc(-c3ccc4c(c3)OCCO4)on2)cc1 | – | inconclusive: 0.708 µM [inhibitor, full curve, poor fit]
O=C(c1ccc(F)cc1)N1CCN(c2ccc([N+](=O)[O-])c(N3CCOCC3)c2)CC1 | – | inconclusive: 28.2 µM [inhibitor, single point]
Cc1cccn2c(Nc3ccccc3)c(-c3ccc(N4CCOCC4)cc3)nc12 | – | inconclusive: 8.91 µM [inhibitor, full curve]
COc1cc(/C=N/N=C2/C(=O)Nc3ccccc32)cc(OC)c1O | – | active: 11.2 µM
COc1ccc2c(=O)c3c(=O)n(Cc4ccco4)c(-c4cc(OC)c(OC)c(OC)c4)nc3oc2c1 | – | inconclusive: 22.4 µM [inhibitor, single point]
COCCCNC(=O)CCn1c(=O)c2ccccc2n(CC(=O)Nc2c(C)cc(C)cc2C)c1=O | inactive: 5.58% | –

SMILES | activity, negative = inhibition | Potency
Nc1c(N(CCO)C(=O)C2CCCCC2)c(=O)[nH]c(=O)n1Cc1ccccc1 | – | inconclusive: 39.8 µM [inhibitor, single point]
COc1ccc(-n2c(SC(C)C(=O)Nc3ncc(Cl)cc3Cl)nc3ccccc32)cc1 (stereo not drawn) | – | inconclusive: 15.8 µM [inhibitor, single point]
COc1ccc(CNC(=O)c2ccc3c(c2)N(Cc2cccc(Cl)c2)C(=O)c2ccccc2S3)c(OC)c1 | inactive: -1.81% | –
CC(C)c1ccc(NC(=O)CSC2=Nc3ccccc3C3=NC(CC(=O)NCc4ccc(F)cc4)C(=O)N23)cc1 (stereo not drawn) | – | inconclusive: 35.5 µM [inhibitor, single point]
Cc1cc(C(=O)NP(=O)(N2CCOCC2)N2CCOCC2)c(C)n1-c1ccc(Br)cc1 | inactive: 8.57% | –
O=C(COc1cc(Cl)c(Cl)cc1Cl)Nc1ccc([N+](=O)[O-])cc1Cl | – | inconclusive: 3.16 µM [inhibitor, partial curve, poor fit]
CCc1ccccc1NC(=O)Cn1c(=O)c2cccn2c2ccc(F)cc21 | inactive: 3.29% | –
COc1ccc(-c2cc(C3CCN(Cc4ccc([N+](=O)[O-])cc4)CC3)[nH]n2)cc1 | – | inconclusive: 5.62 µM [inhibitor, partial curve]
O=C(/C=C/c1ccccc1)NC(=S)NNC(=O)c1ccco1 | – | inconclusive: 14.1 µM [inhibitor, partial curve]
Brc1ccc(N=Nc2ccc3ccccc3n2)cc1 | – | active: 1.12 µM
Cc1cc(Sc2nc(N)ncc2[N+](=O)[O-])ncn1 | – | inconclusive: 3.55 µM [inhibitor, full curve]
CSc1ccc(NC(=O)Nc2cccn(Cc3ccccc3)c2=O)cc1 | – | inconclusive: 2 µM [inhibitor, full curve]
Cc1oc(-c2ccccc2)cc1C(=O)Nc1ccc2ccccc2c1 | inactive: -1.38% | –
Cc1ccc(-c2noc(CNc3ccccc3)n2)cc1 | – | inconclusive: 20 µM [inhibitor, partial curve, poor fit]
COc1ccc(CCNC(=O)C2=C(C)C(=O)OC23CCCCC3)c(OC)c1OC | inactive: 0.456% | –
C/C(=N\N1CCN(Cc2ccc(Cl)cc2)CC1)c1ccc([N+](=O)[O-])cc1 | – | inconclusive: 20 µM [inhibitor, partial curve]
COc1ccccc1C1CC(c2cccs2)=Nc2ccccc2S1 (stereo not drawn) | – | inconclusive: 17.8 µM [inhibitor, single point]
Cc1ccc(C)c(NC(=O)CSc2nc(=O)n(CCN(C)C)c3c2CCC3)c1 | inactive: -8.13% | –
O=[n+]1c2c(n([O-])c3cc(Br)ccc31)CCCC2 | inactive: -0.776% | –
COC(=O)/C(=C1/Oc2ccc(C)cc2S1)C(F)(F)F | – | inconclusive: 7.94 µM [inhibitor, partial curve, poor fit]
S=C(N/N=C/c1ccc(Cl)cc1)N1CCOCC1 | – | inconclusive: 25.1 µM [inhibitor, single point]
CC1(C(=O)NC(=S)NNC(=O)c2ccncc2)CCCCC1 | inactive: 1.57% | –
